Reference: the supplement of paper PMC3334620
Over roughly 33,000 sequences, “E-score (-0.5 to 0.5)” has its median near -0.054; the highest 2% begin near 0.35. Some of the results follow.

target: T1, Stb5 (UniProt P38699); test: PBM E-score (8-mer binding enrichment) (E-score (-0.5 to 0.5)); higher = stronger / more preferred TF binding; most listed sequences are background and not binding sites; conditions: protein concentration: 200 nM; construct: GST-full length
T1 sequence: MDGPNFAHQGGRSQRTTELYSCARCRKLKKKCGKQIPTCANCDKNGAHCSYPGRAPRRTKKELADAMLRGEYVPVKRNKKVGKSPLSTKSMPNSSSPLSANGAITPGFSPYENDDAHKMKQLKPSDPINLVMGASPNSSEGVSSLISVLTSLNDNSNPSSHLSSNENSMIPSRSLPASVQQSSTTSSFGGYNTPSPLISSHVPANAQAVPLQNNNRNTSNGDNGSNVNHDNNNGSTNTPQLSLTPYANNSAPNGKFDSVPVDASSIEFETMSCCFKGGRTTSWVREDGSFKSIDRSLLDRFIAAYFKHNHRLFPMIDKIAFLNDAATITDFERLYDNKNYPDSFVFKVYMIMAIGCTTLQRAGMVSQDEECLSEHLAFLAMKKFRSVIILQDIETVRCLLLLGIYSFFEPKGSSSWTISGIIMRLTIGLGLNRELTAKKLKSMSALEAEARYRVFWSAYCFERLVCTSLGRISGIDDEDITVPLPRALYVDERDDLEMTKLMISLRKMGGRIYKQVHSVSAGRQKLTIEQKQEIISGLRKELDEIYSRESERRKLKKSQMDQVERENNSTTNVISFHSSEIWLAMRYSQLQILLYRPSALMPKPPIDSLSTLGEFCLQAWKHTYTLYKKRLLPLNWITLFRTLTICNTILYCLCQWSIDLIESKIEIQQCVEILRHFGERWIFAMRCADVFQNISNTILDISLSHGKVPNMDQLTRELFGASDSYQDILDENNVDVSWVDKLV
Method: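 Universal 'all 10-mer' protein binding microarrays (Agilent AMADID 015681) probed with GST-tagged S. cerevisiae TFs (full-length or DBD) made by in vitro transcription/translation (PURExpress), about 100-200 nM. Bound TF was detected with fluorescent anti-GST. Each ungapped 8-mer (which stands for itself and its reverse complement) is scored by the PBM enrichment score (E-score), a modified Wilcoxon-Mann-Whitney statistic from -0.5 to +0.5, computed with the Universal PBM Analysis Suite. Scale: above 0.35 generally sequence-specific binding.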

Sequence | PBM E-score
CATCCCCA | -0.318
CAAGCGAG | -0.135
GCATAGAA | -0.119
CATTAATA | -0.0218
ACGTCTCG | -0.29
GTGGAGTA | -0.234
AACCGTGG | -0.103
ACCCAGTA | -0.243
CCGCGCGC | 0.281
GATCAAGA | 0.00171
CACCGAGG | 0.23
AATGAAAC | -0.0879
AACGCGGG | 0.285
CATCAGCC | -0.215
ACCTCCTG | -0.317
AAACTCGG | 0.262
ACCCTGGG | -0.216
AGATATTA | 0.0684
CCAGCCAG | -0.223
TACCTTCA | -0.00879
AGACGCCA | -0.181
GCGATCCA | -0.067

Sequence | PBM E-score
ACCTGGGG | -0.155
CCGCTTAA | 0.233
CGACGCCC | 0.132
CTGCATTA | -0.0653
CCAGAGGC | -0.144
TAAGAGTA | -0.151
CATGATCA | -0.119
AGGCTATA | 0.0655
GGACTGGA | -0.154
ATTTACAG | -0.193
AAGTGTCT | -0.215
AAAGAGTC | 0.00738
GCACCGCA | 0.361
ACAGATTC | -0.0825
AGGTGAAG | -0.154
TGTCGACA | -0.0858
GTACATAA | 0.0602
ACCGCCAC | 0.316
ATCGGCAA | 0.265
ACTGCAGC | -0.0924
AAGGAATT | -0.124
GCCGCCCC | 0.388

Sequence | PBM E-score
TGACACAA | -0.178
CCATCCCA | -0.035
AATGTGTC | 0.0439
CCCTTAGA | -0.221
CGTTCTCA | -0.101
GGTTCGAC | 0.0376
CAACCATC | -0.0877
ACTACGCA | -0.0387
AACGGGCC | 0.147
CAGAGAGC | -0.164
AGTGCATA | -0.112
ATCTCCCC | 0.0718
ACAAATTA | 0.0545
ATGGGTCA | -0.28
CTATGCAC | -0.212
TGAGCCAA | -0.167
GACACACC | 0.154
CAACTGGA | -0.0931
GATGCGCC | 0.0417
AAGAATTG | -0.0152
TAGCCATA | -0.279
ATGGGAGC | -0.051

Sequence | PBM E-score
ACGCTAGC | -0.149
AGAATTAC | 0.0808
GAATGTCA | -0.167
CTCACACA | -0.226
CCAGACCA | -0.219
GCTAGAAA | -0.0115
AGATATCG | -0.08
AGGGACCG | 0.218
CGACGGGA | 0.297
AGTAGTAA | -0.263
CTCTTGAA | -0.13
CACTGTGA | -0.0856
AATTAGAC | -0.0897
ATTGGTCA | -0.159
AGGAGCGA | 0.0201
ATCCGGCA | 0.149
ATGACTAG | -0.128
ATCATCGA | -0.0985
ATAGAACG | -0.078
TACGCAAA | -0.23
AGTCGAGA | -0.281
AAAGGCAG | -0.164

Sequence | PBM E-score
TAGTGGCA | -0.0544
TCAACGGA | 0.147
CAACGATC | -0.0986
CGGTACAG | 0.098
CCGATCTC | 0.262
AGTGAATC | -0.107
AAGGACCT | 0.00048
CGGTTAAG | -0.0893
CACATCCG | 0.0898
GAATCCCC | 0.156
GCAAGAGC | -0.0719
CGATGACG | 0.184
ACTCAGTC | -0.319
GCCAGTCA | -0.18
GCCCTCTA | -0.0386
AGCATAAT | -0.00157
GCAGGGCA | -0.185
ACGCTCAG | -0.207
AAAACATG | -0.197
CAGTTACA | -0.0584
AGCTGATC | -0.0518
